From the RNAGym collection of RNA variant scans (doi:10.1093/nar/gkz1192) come the findings set out here.

Read counts are not given, so values of variants with three or more changes are uncertain.

The labels stand for the following.
B1: CPEB3 Ribozyme (parent)
chain: UAACAGGGGGCCACAGCAGAAGCGUUCACGUCGCAGCCCCUGUCAGAUUCUGGUGAAUCUGCGAAUUCUGCUGUAUAUCUC

This series covers variants of B1. In words: self-cleavage, relative activity (ratio to wild type); higher = more cleavage; in vitro, sequencing. In short, it runs like this: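 CPEB3 self-cleaving ribozyme mutant libraries were made by rounds of error-prone PCR, barcoded, and transcribed in vitro with T7 RNA polymerase for 5 hours at 37°C. Cleavage occurred during transcription and a 15 min DNase I step before EDTA stop. RNAs were reverse transcribed with template switching and Illumina-sequenced, with DNA sequencing mapping barcodes to variants. Relative activity is the variant's cleaved/total read fraction divided by wild type's (minimum 5 reads), averaged across three batches.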
Consider A20C U25A C37U A47G U60C C62G, for which the self-cleavage is 0.09. Turning to A20G A21U A57G U66C, the self-cleavage came to 0.11. In the case of A20G A35G U41C A56U U72C U80C, the self-cleavage worked out at 1.1.

Regarding A20G A21G A45G C50U U67C U72A, the self-cleavage came to 0.18. With A20G A35U A77U, the self-cleavage is 0.25.

Turning to A20G A28G U41A A56G U66C U72A, the self-cleavage was found to be 0.05. Regarding G19U U26A U72C, the self-cleavage amounted to 0.09. G19U U26C U41C A47G G63U A65G: the self-cleavage was 0.1.

For A20G A35G U49C A56G A65G, the self-cleavage was 0.57. As for A20G A21G G24C A35G, the self-cleavage worked out at 0.32. Consider A20C A57G U60C, for which the self-cleavage stood at 0.08.

Turning to A20C C29U U31C A47G, the self-cleavage amounted to 0.06. In the case of A20C C62U A64G, the self-cleavage worked out at 0.15. The figure for G19U A20G C39G A47G U51A U72C is 0.07; for A20G A21G U26A A45U it is 0.05. As for G19U A45U A65G U66C, the self-cleavage worked out at 0.07. In the case of A20G A35U U49C U66C A77G, the self-cleavage came to 0.13. In the case of A20C C38U A56G U76C U80C, the self-cleavage worked out at 0.05.

In the case of G19C U49C A75G, the self-cleavage turned out to be 0.16. In the case of A20G A35C A45G A47G, the self-cleavage was 0.22. A20G A35G U49C G61A A65G U69A U78C: the self-cleavage is 0.23. For G19A U25C U41C U43A U58C, the self-cleavage came out at 0.06. For the variant A20G A28G A65U U72C, the self-cleavage came out at 0.

Consider A20G A21U U58C, for which the self-cleavage amounted to 0.27. On to A20C A47G U67C G70U, for which the self-cleavage stood at 0.5. On to A20G A28G U31C U48C G55A A75G, for which the self-cleavage came out at 0.16. In the case of A20C C27A A28U A45G, the self-cleavage amounted to 0.21.

With G19U U25C C40A A45G A47U A57G U60C, the self-cleavage is 0. Consider A20G A28U U48C U80C, for which the self-cleavage came to 0.61. For A20G A21G U43A U69C, the self-cleavage was found to be 0.16. Consider A20C U25C U78C, for which the self-cleavage came out at 0.1.

With G19C U48A A75U U80G, the self-cleavage is 0.05. For the variant A20G A21G U76C U78C, the self-cleavage is 0.25. Take G19C A47G U54C A57G U60C: the self-cleavage amounted to 0.23. On to A20G A21U A56U, for which the self-cleavage is 0.43. The figure for A20G A28G U41C A56U C71A is 0.14; for G19A U41A U80C it is 0.07; for A20C U41A U43C G53A U72A it is 0.12.

G19U A21G U26A C39U G42U G53A U69A: the self-cleavage was 0.06. As to G19U A20G A64G G70U, the self-cleavage was found to be 0.14. As to A20C A35G U43C U72C, the self-cleavage was found to be 0.52. In the case of G19U G52A A64G U78C, the self-cleavage was found to be 0.26. The figure for G19C A35U U60C is 0.14; for A20G A28U U51C A57G U69C U74A U78C it is 0.33; for A20G A28G U41C A64U it is 0.38.

Regarding A20G A21G U41A A57C U67C, the self-cleavage was 0.07. Regarding G19A U25C U31A, the self-cleavage was determined as 0.29. Then A20G A21U A64G, with 0.12; and G19A U25C U41C, with 0.16. Take A20G A28G U31C U43C G63A A77U: the self-cleavage is 0.09. Then G19A U25C U41C U54A G63A U78C, with 0.1.

Consider G19U G30A U49C C59U U78C C81U, for which the self-cleavage was 0.05.

For the variant A20G A21G U49A U67C, the self-cleavage was determined as 0.39. Take A20G A21G A65G: the self-cleavage is 0.32. With G19C G24A U41C U51A A57G U60C, the self-cleavage stood at 0.12. With G19U A28G C37A, the self-cleavage came out at 0.09.

A20C A21G A45C: the self-cleavage came to 0.03.

As for A20G A35G U43C, the self-cleavage was found to be 0.44.

With G19U A64G U78C U80C, the self-cleavage came to 0.13. As to A20C U26C U48G U78A, the self-cleavage is 0.11. Take G19U C44G A47G: the self-cleavage turned out to be 0.14. The figure for G19U C37U U51C A56G is 0.12.

Regarding G19A U26C A35U, the self-cleavage was 0.09. For the variant A20G A28U A35U A47U U49A U58C, the self-cleavage was 0.18. The figure for A20C G36A U67A is 0.1; for A20G A21C U72A it is 0.13; for A20C A57G U66C U67C U74C U78C it is 0.19. For the variant A20C A21U C37U U48C A57G U69C, the self-cleavage was 0.05. Consider A20C A21U U26C C81U, for which the self-cleavage amounted to 0.05.

Consider G19C C37U A57G U66G A77U, for which the self-cleavage came out at 0.07. Take G19U U25C A28C U31C U72A: the self-cleavage was 0.09. In the case of A20G A35U U67A U72C, the self-cleavage was determined as 0.09. Regarding A20G A21G A56G A57G U58A, the self-cleavage amounted to 0.31. The figure for A20G A28U C34A A35G is 0.08; for A20G A35U U41C U51C U60A A77G it is 0.11.

For the variant G19C U41A U48C, the self-cleavage turned out to be 0.07. Consider G19U C23G A47G C62U A75U, for which the self-cleavage was 0.05. Take A20G A21G U25C U26A G52A: the self-cleavage was found to be 0.06. Take G19C A28U U58C C79A: the self-cleavage was determined as 0.01. Take A20G A21G G46C A57U U67C U76A U80A: the self-cleavage was 0.06. Consider G19U U31A U60C U72A U76C, for which the self-cleavage was 0.05. Take A20G A21U A28G U60A G73A U78C: the self-cleavage amounted to 0.06.

With A20C U43G U76C, the self-cleavage turned out to be 0.25.
